# Data: the supplement of paper PMC12217912
# This is one part of the list. The full chains were built here from the parent and the listed change. Inactive controls read about 0.05.
# B1: TEV protease; numbered along this chain (parent)
# chain: MGESLFKGPRDYNPISSSICHLTNESDGHTTSLYGIGFGPFIITNKHLFRRNNGTLVVQSLHGVFKVKDTTTLQQHLVDGRDMIIIRMPKDFPPFPQKLKFREPQREERICLVTTNFQTKSMSSMVSDTSCTFPSGDGIFWKHWIQTKDGQCGSPLVSTRDGFIVGIHSASNFTNTNNYFTSVPKNFMELLTNQEAQQWVSGWRLNADSVLWGGHKVFMVKPEEPFQPVKEATQL
# Variants of: B1
# Test: raw area under fraction-flipped curve 0-4 h after induction (AUC4h, not background-subtracted), DNA-recorder readout of cleavage of the substrate (dimensionless); higher = more cleavage of the substrate by the protease variant
# Settings: temperature: 34 °C; time window: 0-4 h after rhamnose induction
# Experimental: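 In vivo DNA recorder in E. coli TOP10(DE3) ΔrhaA at 34 °C. Each TEVp single-site mutant (parent TEVp 0) is paired with a single-site variant of the 7-mer TEVs (canonical ENLYFQ|S). The substrate sits between flexible linkers in a Bxb1-sfGFP-TEVs-SsrA fusion, so cleavage stabilises Bxb1 and speeds flipping of a recombination array, read by NGS. The value is the raw area under the fraction-flipped curve over 0-4 h after rhamnose induction (AUC4h), with ≥20 reads per time point. It is not background-subtracted; inactive controls average about 0.047.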
# 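Further: Bxb1 expression induced with 0.2% (w/v) L-rhamnose at OD600 near 0.5, cultures sampled hourly, flipped fraction per protease–substrate barcode pair counted by paired-end Illumina sequencing.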
Variant,area with substrate ENLAFQS,area with substrate ENLEFQS,area with substrate ENLHFQS,area with substrate ENLIFQS,area with substrate ENLLFQS,area with substrate ENLMFQS,area with substrate ENLNFQS,area with substrate ENLPFQS,area with substrate ENLCFQS,area with substrate ENLDFQS,area with substrate ENLFFQS,area with substrate ENLKFQS,area with substrate ENLQFQS,area with substrate ENLRFQS,area with substrate ENLSFQS,area with substrate ENLWFQS,area with substrate ENLVFQS,area with substrate ENLGFQS,area with substrate ENLTFQS
I139P,0.0549,0.083,0.0473,0.0787,0.0729,0.0729,0.0554,0.0617,,,,,,,,,,,
I139W,0.0715,0.0656,,0.0887,,0.0508,0.0593,0.0698,0.0682,0.0708,0.0903,0.0671,0.0627,0.0876,0.058,0.0724,,,
S124T,0.058,,,0.097,0.0512,0.0802,0.0545,,0.085,0.0609,0.0785,0.079,0.066,,,0.105,0.0801,,
S124A,0.0642,,,,,,0.0561,0.0679,,0.0604,0.0884,0.0886,,0.0656,0.0591,0.0542,0.0793,0.0664,
R81K,0.0754,0.0589,0.0734,0.0756,0.0731,,0.0714,0.0352,,0.063,0.0658,,,,0.058,,0.056,,
R81M,0.0758,,0.0707,,0.0625,,0.0744,0.067,,0.0662,0.0777,0.0722,,,,,0.0575,,
R81F,0.0611,0.0644,0.0716,0.0403,0.0685,0.0647,0.0671,0.042,0.0647,0.0648,0.0596,0.0635,,,0.0577,0.0672,0.0633,0.0639,
C111W,0.0514,0.0614,0.0639,,,0.0523,0.0497,0.0517,0.0588,0.1,,,,0.0771,0.0563,0.0705,,,
I110S,0.0382,,0.0551,0.0691,0.0677,0.0541,0.0499,0.0555,0.0627,0.0523,0.0603,,,0.0406,0.0612,0.0477,,,
F101K,0.0459,,,,,0.07,0.0617,,,0.0591,0.0887,,,,0.0501,,,,
D128V,0.0825,0.0687,,,0.082,0.109,0.0605,0.0628,,0.0539,0.152,0.119,,0.103,0.0631,,,,0.0674
G138V,0.0543,0.0564,,0.0615,,,0.0392,0.0518,0.0727,0.0674,0.0715,0.0604,,,,0.0492,,,
V113Q,0.0571,0.078,0.0536,0.0782,,,0.0713,0.0444,,0.0686,0.0707,0.0598,,0.0603,,,,,
K98G,0.0711,0.0685,0.0791,0.0973,,,0.0698,0.0677,,0.0693,0.106,0.0746,,0.0813,0.0575,0.0646,,0.0657,
K98T,0.0624,0.0561,0.079,,0.0807,0.0671,0.0617,0.0619,0.0846,0.0492,0.0944,0.0805,0.0874,0.0832,0.0539,0.0677,,,
